# In the supplement of paper PMC12217912:
# This is one part of the list. Sequences were assembled here from the parent chain. Values near 0.05 are background.
# B1: TEV protease; numbered along this chain (parent)
# chain: MGESLFKGPRDYNPISSSICHLTNESDGHTTSLYGIGFGPFIITNKHLFRRNNGTLVVQSLHGVFKVKDTTTLQQHLVDGRDMIIIRMPKDFPPFPQKLKFREPQREERICLVTTNFQTKSMSSMVSDTSCTFPSGDGIFWKHWIQTKDGQCGSPLVSTRDGFIVGIHSASNFTNTNNYFTSVPKNFMELLTNQEAQQWVSGWRLNADSVLWGGHKVFMVKPEEPFQPVKEATQL
# Variants of: B1
# Test: raw area under fraction-flipped curve 0-4 h after induction (AUC4h, not background-subtracted), DNA-recorder readout of cleavage of the substrate (dimensionless); higher = more cleavage of the substrate by the protease variant
# Details: temperature: 34 °C; time window: 0-4 h after rhamnose induction
# Experimental: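 In vivo DNA recorder in E. coli TOP10(DE3) ΔrhaA at 34 °C. Each TEVp single-site mutant (parent TEVp 0) is paired with a single-site variant of the 7-mer TEVs (canonical ENLYFQ|S). The substrate sits between flexible linkers in a Bxb1-sfGFP-TEVs-SsrA fusion, so cleavage stabilises Bxb1 and speeds flipping of a recombination array, read by NGS. The value is the raw area under the fraction-flipped curve over 0-4 h after rhamnose induction (AUC4h), with ≥20 reads per time point. It is not background-subtracted; inactive controls average about 0.047.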
# 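Further: Bxb1 expression induced with 0.2% (w/v) L-rhamnose at OD600 near 0.5, cultures sampled hourly, flipped fraction per protease–substrate barcode pair counted by paired-end Illumina sequencing.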
Variant,area with substrate ENLCFQS,area with substrate ENLDFQS,area with substrate ENLEFQS,area with substrate ENLFFQS,area with substrate ENLGFQS,area with substrate ENLHFQS,area with substrate ENLIFQS,area with substrate ENLKFQS,area with substrate ENLLFQS,area with substrate ENLPFQS,area with substrate ENLQFQS,area with substrate ENLRFQS,area with substrate ENLSFQS,area with substrate ENLVFQS,area with substrate ENLTFQS,area with substrate ENLWFQS,area with substrate ENLMFQS,area with substrate ENLNFQS
S130W,0.0604,0.0587,0.0451,0.0705,0.0699,0.0675,0.0734,0.0626,0.0529,0.0586,0.0698,0.0629,0.065,0.0953,,,,
G162S,0.064,0.0587,,0.08,,0.0853,,,0.0699,0.069,,,0.0563,,0.0639,0.0757,,
T147P,0.0651,0.0743,0.0703,0.0923,0.06,0.0728,0.0615,0.0645,0.0587,0.0646,0.0638,0.0633,,0.0636,,0.0536,0.0596,0.0633
I167Y,0.0635,0.057,0.0681,0.0471,,0.0577,0.0738,,0.0666,0.0597,0.0546,0.0586,0.072,0.0629,0.0456,,0.0556,0.0729
S154M,0.0537,0.0658,,0.0755,0.0668,0.0577,0.0713,0.0588,,,,,0.0577,,,0.0531,,0.0589
T129C,0.0302,0.0623,,0.0692,0.0473,0.0628,0.0697,0.0757,,0.0523,0.0639,,0.0679,,,,,0.0537
T129F,0.0636,,,,,,0.078,0.0704,,0.0662,,0.0748,0.0625,,,,,0.0616
P155H,0.0578,0.0573,0.0495,,,0.0279,,0.0492,0.0644,0.0444,0.037,,0.049,,,,,0.0611
L191M,0.071,0.0676,0.0658,0.0752,0.0533,0.0691,0.0687,0.0796,0.0672,0.0587,0.077,0.0738,0.0611,0.0766,,0.0691,0.0942,0.0645
I164M,0.0649,0.0645,0.0629,0.0675,,0.0537,,0.067,0.0704,0.0631,0.0546,0.0635,0.0525,0.0741,,0.0618,0.0539,0.0573
I164N,0.0558,0.0569,0.0521,0.0483,,0.0495,,,,,0.0589,,0.0535,,,0.053,,0.0592
V220C,0.0542,0.0693,0.0684,0.101,0.0664,,0.0825,0.0835,0.0688,,0.0892,0.145,0.0585,,,0.0674,0.0855,0.0582
W141R,0.0634,0.0665,0.0538,0.0578,0.0703,,,,0.0444,0.0545,0.0446,0.0417,0.0565,0.0475,,0.0453,,0.0644
D161Y,0.063,0.0582,0.0488,0.0659,0.0702,0.0515,0.0729,0.0569,0.0569,0.05,,0.0613,0.0641,,,,0.0977,0.0586
Q198C,0.071,0.0618,0.0567,0.0639,,,0.0859,0.0777,0.0752,0.0649,0.0706,0.0765,0.0532,0.0765,0.0575,0.0688,,0.0594
K142D,0.0678,0.0627,0.0647,0.0644,,,,0.0626,0.0588,0.0599,,,,,0.0569,,,

Variant,area with substrate ENLCFQS,area with substrate ENLDFQS,area with substrate ENLEFQS,area with substrate ENLFFQS,area with substrate ENLGFQS,area with substrate ENLHFQS,area with substrate ENLIFQS,area with substrate ENLKFQS,area with substrate ENLLFQS,area with substrate ENLPFQS,area with substrate ENLQFQS,area with substrate ENLRFQS,area with substrate ENLSFQS,area with substrate ENLVFQS,area with substrate ENLTFQS,area with substrate ENLWFQS,area with substrate ENLMFQS,area with substrate ENLNFQS
E223M,0.0921,0.0575,,0.0736,0.0807,0.0713,0.0571,0.0728,,0.0593,,0.0436,,,,0.0696,0.0474,0.0617
M219I,0.0662,0.0515,0.0546,0.071,,0.0717,,,0.0506,0.0541,0.0724,,0.0565,,,,0.0671,0.0638
M219Y,0.0465,0.0639,,0.0998,,,,0.0886,,0.0622,,0.0741,,,,,0.0981,
F180E,0.0444,0.054,,,,0.0611,,,,,,,,,,,,
T233N,0.0802,0.0596,0.0564,0.115,0.0743,0.0732,,0.0777,0.0797,0.0455,,0.0642,0.0645,,,0.0577,,0.0672
S135P,0.0637,0.0587,,0.0642,,0.0711,0.0748,,0.0545,0.0666,0.05,0.0549,0.0608,,,0.0615,0.0632,0.0742
F173M,0.104,0.0704,0.08,0.0953,,,,0.0809,,,0.0638,,,,,,,0.0677
N172E,0.0635,,0.0667,0.0781,0.0707,,,,,0.0524,,,,,,,,
P225V,0.0804,0.0628,0.0576,0.0885,,,0.0826,0.0815,,0.0651,,,0.0654,,,0.0473,0.0714,
T176A,0.0676,,,0.0464,,0.0551,0.0606,,,,0.0759,0.0589,0.0635,,,0.0553,0.0591,0.0854
T132Q,0.0704,0.0478,,0.0721,,0.0644,0.0826,0.0748,0.0793,,,0.0628,0.0408,,,0.0633,0.0998,0.0659
Q151G,0.0711,0.0589,,0.0724,,,0.0524,0.056,0.071,0.0699,,,0.0506,0.0725,,0.0626,0.0561,
T174P,0.0503,,,0.0808,,,0.0788,,,0.0524,0.0563,0.0696,,,,,,0.0621
D137Y,0.0698,0.0544,0.0438,0.0833,,,0.0597,0.0752,,0.0646,,0.0711,0.0699,0.0702,,0.0751,,0.0495
W199C,0.0729,0.0667,0.054,0.0775,0.0603,0.0608,,0.0505,,0.0628,0.0545,,,0.0552,,,,0.0582
